# From PMC7819943, “Rice protein-binding microarrays: a tool to detect cis-acting elements near promoter regions in rice”
# This is one part of the list.
# Biological target: T1, OsWOX13 (Oryza sativa, UniProt Q5QMM3 1-267)
# T1 sequence: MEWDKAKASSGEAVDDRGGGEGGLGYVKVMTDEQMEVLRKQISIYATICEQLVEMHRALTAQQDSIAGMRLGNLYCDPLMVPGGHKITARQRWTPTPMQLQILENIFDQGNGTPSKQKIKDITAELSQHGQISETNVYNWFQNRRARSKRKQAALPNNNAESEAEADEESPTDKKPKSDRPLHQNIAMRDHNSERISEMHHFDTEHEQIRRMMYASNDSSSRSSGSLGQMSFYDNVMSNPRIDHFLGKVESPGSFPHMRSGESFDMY
# Test: protein-binding microarray (RPBM); PBS, 2% BSA, 51.3 ng/ul salmon testes DNA, 50 uM zinc acetate, 200 nM TF, 25 C, 1 h; high values mean tight binding
# Details: protein: recombinant; tags: N-terminal polyhistidine and DsRed monomer fusion (pET32a); label: CyDye5-dUTP incorporated in the synthesized complementary strand; 3' TTTTT single-stranded linker to array surface; dsDNA, one strand shown
# Procedure, shortened: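 Binding signal here means per-feature fluorescence intensity in arbitrary units. The values were read on an Axon 4000B scanner after a custom Agilent array, double-stranded by primer extension with Cy5-dUTP, was incubated with 200 nM protein at 25 °C for 1 h in PBS with 2% BSA, salmon testes DNA and 50 µM zinc acetate, then washed. The proteins were transcription factors with an N-terminal polyhistidine tag and DsRed, expressed in E. coli BL21-CodonPlus and purified on Ni–NTA.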
row,Sequence,binding signal
1,ATCGTTGTTGGATTGATTGCACGAGAAAACAGAAGAAGGGCGGAGTCACCTAGTGCAG,27700 fluorescence intensity (a.u.)
2,CCAATAATGATAAATCCCGTGACGTAGTATACGCCTCTGTCGGAGTCACCTAGTGCAG,7020 fluorescence intensity (a.u.)
3,AATTTAATTGTACTTATCTCACATGATACCTTCGATGTTGCGGAGTCACCTAGTGCAG,24100 fluorescence intensity (a.u.)
4,CAAATTTGCCAATTATGACAAAACAACATAAGTTAGAGTTCGGAGTCACCTAGTGCAG,25200 fluorescence intensity (a.u.)
5,AGGATGATGAGATGGAATGATGATAAGTGCCATGAAGCCTCGGAGTCACCTAGTGCAG,11600 fluorescence intensity (a.u.)
6,TTTAATTGTGTTTTATATAACTATAAAACATCAAACAAACCGGAGTCACCTAGTGCAG,16600 fluorescence intensity (a.u.)
7,AACCCTCTAATTAACACCCTTTCATCTTGTACTTTAATTTCGGAGTCACCTAGTGCAG,9450 fluorescence intensity (a.u.)
8,ACTAATAATAAAACAAATTACATATTCCGACGGTAAACTGCGGAGTCACCTAGTGCAG,8990 fluorescence intensity (a.u.)
9,TATTCATATAATCATATTGATGATTTCATAGGGTATAGTCCGGAGTCACCTAGTGCAG,9080 fluorescence intensity (a.u.)
10,ACCCCGCGCTAATTTAATCCGCTGCCTTCCTGGAAAGGGACGGAGTCACCTAGTGCAG,6260 fluorescence intensity (a.u.)
11,CTAATTAATCTATAATTAGAGAATGTTTACTGTAGCATCACGGAGTCACCTAGTGCAG,34400 fluorescence intensity (a.u.)
12,TTAAATCGAAATCCCGCAGTTAAATCAGAGATTTATGCAGCGGAGTCACCTAGTGCAG,3470 fluorescence intensity (a.u.)
13,CTCTGTTGACAGCGAGGTGCTAGCACAATCTTTTAGAGGTCGGAGTCACCTAGTGCAG,3510 fluorescence intensity (a.u.)
14,AAGATTTAATTACAACGAATTTAATGGTGTAATCGGATCACGGAGTCACCTAGTGCAG,38400 fluorescence intensity (a.u.)
15,TTTGATAATTAGCATATCTTTAGCTGATGGTTCTAGCTTCCGGAGTCACCTAGTGCAG,33100 fluorescence intensity (a.u.)
16,CTTTCATTACTGAAAATTGTCACTAATGAACTCGAGAACGCGGAGTCACCTAGTGCAG,5720 fluorescence intensity (a.u.)
17,AAAATTGCTGACTAGACTGCCACGTAGACCAAAACTACTTCGGAGTCACCTAGTGCAG,6760 fluorescence intensity (a.u.)
18,TGACTGATGTAATATTATATTATCTATGAACCATGTTATTCGGAGTCACCTAGTGCAG,3370 fluorescence intensity (a.u.)
19,CCAATCAATTAATCAACCAAAAGAAACATTCCCCAACCCACGGAGTCACCTAGTGCAG,30800 fluorescence intensity (a.u.)
20,TAATAATTGAATTGGGGAATAATTAAAATCATCTATCTAACGGAGTCACCTAGTGCAG,46100 fluorescence intensity (a.u.)
21,CTAAAATAATTTAATAAATTGTTGCAAGAAAATCAATTGTCGGAGTCACCTAGTGCAG,25800 fluorescence intensity (a.u.)
22,AGTTCAATCAGCTGCCGCAGTGGCCTGATATCAACCTCAGCGGAGTCACCTAGTGCAG,3580 fluorescence intensity (a.u.)
23,ACCTAGAATGTGATTTGACCGATCCTAAAGATAACGAATCCGGAGTCACCTAGTGCAG,7090 fluorescence intensity (a.u.)
24,ACGGTGTGGGGAGGTAAATTGATTCGCTGTGCTCGATTTTCGGAGTCACCTAGTGCAG,4600 fluorescence intensity (a.u.)
25,AATAACAAAATAAATTATAGATTCTACCTGTAAACTGTGACGGAGTCACCTAGTGCAG,11500 fluorescence intensity (a.u.)
26,AGAGAGATTGGGAAGCTCAAGTTAAACCAACAATGATGGCCGGAGTCACCTAGTGCAG,6520 fluorescence intensity (a.u.)
27,CTATTCAATTTACGCCAATAGATGGGTAATGTGCTAGTGCCGGAGTCACCTAGTGCAG,13800 fluorescence intensity (a.u.)

row,Sequence,binding signal
1,TTTAATTATTTTGATTATTTTATCATGACTTATCGGTTGTCGGAGTCACCTAGTGCAG,37500 fluorescence intensity (a.u.)
2,GGTTTGACACAGATAACTATACTACTTATTCACATCTGAGCGGAGTCACCTAGTGCAG,6920 fluorescence intensity (a.u.)
3,AGTTTGACGGAGAAATTTTGAATCTAAACACCGCCAGTGTCGGAGTCACCTAGTGCAG,5720 fluorescence intensity (a.u.)
4,CTTTATTAATCTACAAACATAATTACATCGTTCACTAGAACGGAGTCACCTAGTGCAG,3600 fluorescence intensity (a.u.)
5,CCGGATTTCAGTTATTTCCTAATTGCATTTCTATATGGACCGGAGTCACCTAGTGCAG,9320 fluorescence intensity (a.u.)
6,TGACAATCATAGACCTGTAACAAACTCAACTCAACGGTCACGGAGTCACCTAGTGCAG,4680 fluorescence intensity (a.u.)
7,ATTAATTAAATTTTGCATAGTACCGGTACTGTGTTGGATACGGAGTCACCTAGTGCAG,39600 fluorescence intensity (a.u.)
8,CCTCACAAAGGGCATTAATAAATTGATATCATTATTTATGCGGAGTCACCTAGTGCAG,6080 fluorescence intensity (a.u.)
9,GTGGGTTACTCACTAATTGATGTGGTTATGGTTCACCAACCGGAGTCACCTAGTGCAG,23000 fluorescence intensity (a.u.)
10,TGTAATTATAGTATAATCGTAGTAATAATTACACTGTAACCGGAGTCACCTAGTGCAG,22000 fluorescence intensity (a.u.)
11,CCGTTGGATTGGATTCTTGAGCAATCTGGACGGAGATCCTCGGAGTCACCTAGTGCAG,4570 fluorescence intensity (a.u.)
12,GCATTATTAATTGATGTTGTGATATTTATATGAATACATACGGAGTCACCTAGTGCAG,25200 fluorescence intensity (a.u.)
13,ATGTGATGGAAAAGTTAGAAATTTATGTGTGTAGGAAAATCGGAGTCACCTAGTGCAG,3640 fluorescence intensity (a.u.)
14,TGTGATTGGCACGTGGGTCCAACTAATACGTAGGCACTATCGGAGTCACCTAGTGCAG,39100 fluorescence intensity (a.u.)
15,GCTTAACACAACACTTTGATTGATGAGGTTTAATTAAGAGCGGAGTCACCTAGTGCAG,44200 fluorescence intensity (a.u.)
16,AGTTAAATTTGAAAGAGTTTGACTTTAACCAAAGTCAAAACGGAGTCACCTAGTGCAG,3300 fluorescence intensity (a.u.)
17,GGTATAACCTAAAGTTTATCCGTTTGTAGAGCGAATGTTTCGGAGTCACCTAGTGCAG,14400 fluorescence intensity (a.u.)
18,TGTTTAAATTCATTAACATCTAAATGAATATAGGCAATGCCGGAGTCACCTAGTGCAG,4620 fluorescence intensity (a.u.)
19,GGGGATGGAAGGGTGATTGAGAGTAAGAATTGGAGGTGATCGGAGTCACCTAGTGCAG,30000 fluorescence intensity (a.u.)
20,TGTAAATTTGGATCAATGACATATAAGGAAAGAGCCAATTCGGAGTCACCTAGTGCAG,8200 fluorescence intensity (a.u.)
21,TTAATTTATTTAAATATATAGGCAAGATAATAACAGCTGCCGGAGTCACCTAGTGCAG,12500 fluorescence intensity (a.u.)
22,TTCATAATTTAACATCTATCTACTTAGATTTATAGTATTACGGAGTCACCTAGTGCAG,13200 fluorescence intensity (a.u.)
23,CACCCATTGAATTGAAAGATGGGAAAGGGACAGAACTGATCGGAGTCACCTAGTGCAG,3260 fluorescence intensity (a.u.)
24,AGAGGAAAGCTGATTGACAATTATGATTTGTGTACGAAGTCGGAGTCACCTAGTGCAG,39200 fluorescence intensity (a.u.)
25,GCTGATTAATTTCACTCCATGTACTACTGCCGATTTGTTCCGGAGTCACCTAGTGCAG,5750 fluorescence intensity (a.u.)
26,CTGTAATTGCAATTTCTTGCCCAATGTTCAGAATATGTACCGGAGTCACCTAGTGCAG,49400 fluorescence intensity (a.u.)
27,AACAAATTAATTTTCACAATCATCATGCCGACTTGAATGTCGGAGTCACCTAGTGCAG,26900 fluorescence intensity (a.u.)
